Data on 120 sequences can be found in the supplement of paper PMC10126150.

Sequences with one replicate were seen in a single cluster, so their values are uncertain.

The data set concerns ATP. Put plainly: switch fluorescence ratio, 500 uM ATP over buffer (Cy3 cluster intensity, sum of 5 cycles each) (fold (ratio)); higher = stronger signal-on switching upon ATP binding; sequences stand for … in TCGTCGGCAGCGTCAGATGTGTATAAGAGACAGTTTTTTTTTTTTTTTTTTTTTTTTT…TC. To be noted: aptamer strand: ATP DNA aptamer (quencher-CACCTGGGGGAGTATTGCGGAGGAAGG + anchor), 100 nM annealed; ATP concentration: 500 uM; one replicate. An outline of the steps: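 Switching-strand clusters labelled with Cy3 on a modified Illumina MiSeq flow-cell were annealed to 100 nM quencher-labelled ATP aptamer, imaged in selection buffer, and re-imaged after 15 min with 500 uM ATP at 22 °C. This was done over five cycles with NaOH stripping and re-annealing in between. The fluorescence ratio is summed target-cycle over summed buffer-cycle Cy3 intensity per cluster, averaged per switch-domain sequence, excluding clusters outside 100-1000 RFU.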
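Also: ATP exposure 15 min at 22 °C before imaging.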

With CGAAGTTGGG, the switch fluorescence ratio came to 1.01. With TCTATGTAAA the figure was 1.01; with ACAACTAGAG, 1.01; with CGTCTAAGGC, 1.1.

On to TGCCGGCGGC, for which the switch fluorescence ratio turned out to be 1.03. Turning to GCGCTTAGTA, the switch fluorescence ratio was 1.01. On to TGGCCATATT, for which the switch fluorescence ratio stood at 1.04. As for ATGATGACGG, the switch fluorescence ratio came out at 1.03. As for CGAGAATCGA, the switch fluorescence ratio amounted to 1.02. With GGATTTTTCG the figure was 1.

TGCAATGCAT: the switch fluorescence ratio came out at 1.06. With ATCGTCACGA the figure was 0.984; with TCATAAACAA, 1.03; with TACAGGATAG, 1.04.

Consider TAACTTGTGC, for which the switch fluorescence ratio turned out to be 0.968. The value for CGATCAATTG was 1.01. For the sequence CTATCATGCA, the switch fluorescence ratio turned out to be 1.05. The value for CAGTTATACA was 1.03; that for TCGGTGCCGA was 0.972. Regarding TGACTCCAGC, the switch fluorescence ratio amounted to 1.54.

With TTCCCGCAAG, the switch fluorescence ratio is 1.42. Take TGAGGAATGC: the switch fluorescence ratio was 1.35. With ATCTCAGGTT the figure was 1.06; with GATGCAGGGT, 1.01; with GCACATAGGT, 1.06. With GGCATGATGC the figure was 0.974; with AAGATCGATG, 0.978; with GACGGTAAAT, 1.17. With GTGAAACTTT the figure was 1.04. Turning to TGGATCACTC, the switch fluorescence ratio came to 0.991. With GCTCACGCTG, the switch fluorescence ratio was 1.23. In the case of TCACACATCG, the switch fluorescence ratio came out at 0.997. As for GGTCGACGTG, the switch fluorescence ratio is 0.938. The value for TCTGGGGTCC was 0.948; that for CAAAGAGGGG was 0.999; that for TGAATTCCCT was 0.998. With GGTGATAGTC, the switch fluorescence ratio is 1.01.

Take CAGCTTTGTT: the switch fluorescence ratio is 0.967. The value for AACGGTATG was 1.07; that for TGCCGGGACG was 1.03.

Take CAGAAATGAA: the switch fluorescence ratio was 1.12. TAACACCCTT: the switch fluorescence ratio is 1.08.

Consider ATGATTCCGA, for which the switch fluorescence ratio was 1. The value for CCCCGTTGTA was 1.5; that for TACCTTGCTT was 1.09; that for AGACGGTTGT was 1.04. With TTAAGGGTGA the figure was 0.993; with TCGAACGCCT, 1.33. In the case of CAAGAGTTGC, the switch fluorescence ratio worked out at 0.99.

ATATGCTGAA: the switch fluorescence ratio was 0.987. Consider CCAGAGCAT, for which the switch fluorescence ratio was 6.77. The value for AGAAGCGACG was 0.952; that for CGTGGCGATC was 1.02; that for TCAGTTCC was 1.09.

On to TATATAGTGA, for which the switch fluorescence ratio was 0.967. For GCGGCATGAC, the switch fluorescence ratio came to 1.27. The value for CGATACGGGG was 1.01; that for GGATCGCTCC was 1.01. For the sequence CCAGCGTACG, the switch fluorescence ratio was 1.07. The value for GGCCTAGCTG was 1.

For the sequence GACCCAGAG, the switch fluorescence ratio stood at 1.

Turning to TACGTCTCAC, the switch fluorescence ratio is 1.22. With ACGTACGTGC, the switch fluorescence ratio came out at 1.49.

Consider TTTCACTTTG, for which the switch fluorescence ratio was 1.12.

TGCGATAGCT: the switch fluorescence ratio worked out at 1.04.

Consider ACGGGCATGG, for which the switch fluorescence ratio amounted to 1. ACAGATATGG: the switch fluorescence ratio was found to be 1.02. The value for GCAAGGTGCG was 0.992; that for ATTGGACGTA was 1; that for CGCCGAGCCC was 1.18. The value for CTCAGCGGGG was 1.05. The value for GGTCTTCTCT was 1.01; that for AAGAATACGT was 1.25. Take ACGCGCAATC: the switch fluorescence ratio came out at 3.92.

For CATTCGAGTG, the switch fluorescence ratio came out at 0.99.

With TTCTTACTA, the switch fluorescence ratio was 1. The value for AGGCTTCGGA was 0.979; that for TATCGGAATC was 1.34. Turning to AATCTTGAAC, the switch fluorescence ratio came to 1.01.

In the case of CGTCTAGCT, the switch fluorescence ratio was 1.02. The value for GGCAGGAAAT was 0.99. With ATACGTCTTG the figure was 0.979; with ATTGTT, 0.945; with AAAGGGTCTT, 0.995. The value for GTAGAATCAT was 1; that for GGCAACTGTT was 1.09; that for ATCAATCTTC was 1.03. AGATACAATC: the switch fluorescence ratio amounted to 1. The value for GAGATGTGTT was 0.979; that for ACCCCGTACC was 1.26.

For the sequence GCATAGCTGT, the switch fluorescence ratio was found to be 0.961. With ACTCGTAAGA the figure was 1.08; with AACGATAACT, 1.08; with TTCTGAAAGG, 1.08. The value for AAGTTCCTTT was 1. Regarding CTTGTCAGAA, the switch fluorescence ratio worked out at 0.988.

As to GCTTAAAAGC, the switch fluorescence ratio was found to be 1.15. With AATTGCTGGT the figure was 1.02; with AATTGAATG, 0.988. With GGGTATTGCT, the switch fluorescence ratio is 0.967. As to TCAACAGCGC, the switch fluorescence ratio was 0.998. With CTAATGTTCT, the switch fluorescence ratio was 1.01. The value for AGGGATTGTT was 0.971. With TTTTATTCTC the figure was 1; with CGACTTAAGA, 0.983. Regarding GTAGTGTCTA, the switch fluorescence ratio worked out at 0.968.

On to CTGGTTCCGA, for which the switch fluorescence ratio worked out at 0.993. With GACATTGCGA the figure was 0.99; with TCAGAGGAGG, 1.06. As to ACTACATTGC, the switch fluorescence ratio came to 1.14. With AAGATGCAGG the figure was 0.992; with CTACCTTGTT, 0.957; with CGCGGGCGTC, 1. For the sequence GCGCAATGTG, the switch fluorescence ratio came to 1.29.

For the sequence CGCCGAATAT, the switch fluorescence ratio came out at 1.55. With GTCGTCAGAC the figure was 1.01; with ATTATCGTCT, 1.02. With TGACAGTCCC, the switch fluorescence ratio is 1.01. With GCTATCAATG the figure was 1.03; with TAAGTCCGAT, 0.967.
